# Measurements as given in the supplement of paper PMC12217912.
# This is one part of the list. The full chains were built here from the parent and the listed change. Inactive controls read about 0.05.
# B1: TEV protease; numbered along this chain (parent)
# chain: MGESLFKGPRDYNPISSSICHLTNESDGHTTSLYGIGFGPFIITNKHLFRRNNGTLVVQSLHGVFKVKDTTTLQQHLVDGRDMIIIRMPKDFPPFPQKLKFREPQREERICLVTTNFQTKSMSSMVSDTSCTFPSGDGIFWKHWIQTKDGQCGSPLVSTRDGFIVGIHSASNFTNTNNYFTSVPKNFMELLTNQEAQQWVSGWRLNADSVLWGGHKVFMVKPEEPFQPVKEATQL
# Variants of: B1
# Test: raw area under fraction-flipped curve 0-4 h after induction (AUC4h, not background-subtracted), DNA-recorder readout of cleavage of the substrate (dimensionless); higher = more cleavage of the substrate by the protease variant
# Settings: temperature: 34 °C; time window: 0-4 h after rhamnose induction
# Description: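 In vivo DNA recorder in E. coli TOP10(DE3) ΔrhaA at 34 °C. Each TEVp single-site mutant (parent TEVp 0) is paired with a single-site variant of the 7-mer TEVs (canonical ENLYFQ|S). The substrate sits between flexible linkers in a Bxb1-sfGFP-TEVs-SsrA fusion, so cleavage stabilises Bxb1 and speeds flipping of a recombination array, read by NGS. The value is the raw area under the fraction-flipped curve over 0-4 h after rhamnose induction (AUC4h), with ≥20 reads per time point. It is not background-subtracted; inactive controls average about 0.047.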
# 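Further: Bxb1 expression induced with 0.2% (w/v) L-rhamnose at OD600 near 0.5, cultures sampled hourly, flipped fraction per protease–substrate barcode pair counted by paired-end Illumina sequencing.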
Variant,area with substrate ANLYFQS,area with substrate DNLYFQS,area with substrate GNLYFQS,area with substrate HNLYFQS,area with substrate LNLYFQS,area with substrate NNLYFQS,area with substrate PNLYFQS,area with substrate RNLYFQS,area with substrate SNLYFQS,area with substrate TNLYFQS,area with substrate VNLYFQS,area with substrate WNLYFQS,area with substrate YNLYFQS,area with substrate CNLYFQS,area with substrate FNLYFQS,area with substrate INLYFQS,area with substrate KNLYFQS,area with substrate QNLYFQS,area with substrate MNLYFQS
L156I,0.0503,0.0699,0.0595,0.051,0.058,0.0606,0.0846,0.0586,0.0575,0.0763,0.0772,0.0647,0.0651,,,,,,
S26T,0.0237,,,,0.0613,,0.0633,0.0663,0.0596,0.0728,0.0666,0.0606,,0.0698,0.0635,0.0597,0.0569,0.0639,
H47V,0.0852,,0.0533,0.064,0.0565,0.0586,0.0609,,,0.0594,0.0484,0.0585,0.0623,0.0602,0.0568,0.0669,0.0543,,0.0606
Q74W,0.062,0.0284,0.0499,0.0581,0.0684,0.0592,0.0636,,0.0648,0.0667,,0.0576,0.0617,0.082,,,,,0.0602
I15Y,0.0566,0.0772,0.0584,0.0575,0.0549,,0.0516,,0.0635,,,0.0568,0.0501,,0.0674,0.0558,0.064,,0.0458
H76A,0.0707,,0.0668,,0.0572,,0.0759,,0.0487,,0.0614,0.0535,,0.0333,0.0606,,,0.0693,0.0718
H76I,0.0672,,0.0546,,0.0583,,,,,,,0.0603,,0.0707,0.049,0.0537,0.0684,,0.0611
D161T,0.0257,0.113,0.0683,0.065,0.0654,0.0626,0.092,,0.066,0.0541,,0.0538,,,,0.0715,0.0704,,
I43T,0.0305,,,0.0429,0.0579,0.0708,0.047,,0.0471,0.0565,0.0779,0.054,0.0074,0.0536,,0.0493,0.0689,,0.0403
Q151C,0.0626,,0.0629,0.0714,,0.068,0.0756,0.0695,0.0048,0.0449,,0.0627,,0.0581,,0.0727,,0.0549,
W203C,0.0435,0.0531,0.063,0.0437,,0.0535,0.065,,0.0633,0.0567,0.0723,0.0706,0.0559,,0.0518,0.0569,,0.0552,0.0559
Q227T,0.058,,0.0723,0.0561,,,,,0.0666,,,0.0627,,0.0766,0.0717,,,,
D82F,0.0587,,0.059,0.0582,0.0581,0.0674,,,0.0525,0.0467,,0.0466,0.061,0.0601,0.0519,0.0449,0.0535,,
G166P,0.068,,,0.0579,0.0413,,0.0407,,0.0299,0.0575,,0.0471,0.0318,0.0295,,,,,0.0534
G166N,0.025,,,0.0541,,,0.0526,,0.054,,0.061,0.0494,,0.0553,0.0493,,,,0.0146
P155C,0.0632,,,0.069,0.0712,0.0769,0.0611,,0.0197,0.0638,,0.0584,,0.0496,0.0652,0.059,0.0611,0.0743,0.0569
P9M,0.0647,,0.0697,0.0705,0.0513,0.0749,0.0713,0.0723,0.0699,0.0712,,0.0438,0.0497,0.0783,,,0.0808,,0.0661
P9G,0.061,,0.0667,0.0522,0.0649,0.0648,0.0689,0.0835,0.0824,0.0707,,0.0607,,0.0715,0.057,0.0635,0.0567,,0.0609
I164W,0.0726,,,0.0347,,0.0373,0.0245,,,,,0.0551,0.0401,0.0541,0.07,0.0489,0.0555,0.0547,
N53T,0.0815,,,0.0626,,0.0413,0.0688,,0.0638,0.0539,0.0741,0.0576,,0.0674,0.0542,0.0643,0.0694,,0.075
D137C,0.0543,,0.0722,0.0689,,0.065,,,0.08,0.0666,,0.0587,0.0904,0.0659,,,0.0702,,
Q234H,0.0653,,,,,0.0672,0.0805,,,0.0853,,,0.0695,0.0774,0.0491,,,,
N52R,0.0719,0.0284,,,,,,,0.0562,,,0.0667,0.0643,,0.0556,,,,0.0752
K142M,0.0961,,,0.0692,,0.0701,,,,0.0529,0.0722,,0.0676,0.0687,0.0623,0.08,,0.113,0.0829
E108I,0.0584,,0.0509,0.061,0.0509,,0.0509,,0.0485,0.0582,,0.0515,0.048,0.0515,,0.0631,0.0872,,0.0537
K68E,0.0556,,0.0718,0.0656,0.063,,0.0754,,,0.0668,0.0798,0.0692,0.0737,0.0728,,0.0688,0.072,,0.0655
C20D,0.0451,,0.0405,0.0394,0.0482,0.0442,0.0538,0.0275,0.0586,0.0534,,0.0337,0.0369,0.0345,0.0663,0.0412,0.048,0.0553,0.0475
L22R,0.0432,,0.0461,0.0435,0.0428,0.0446,0.036,,0.0477,0.0532,,,,0.0406,0.0514,,,,0.0518
L22T,0.0638,0.0376,0.0649,0.0432,0.0497,0.0422,0.0174,,0.0375,0.0455,0.0364,0.0567,,,,0.0502,,,0.0444
